Experimental data from paper PMC4685312.
No constants are given. Whether binding was seen depends on the method and setting. Binding seen in cells or lysates may run through a third protein. Some results given as binding are weak or reduced against the parent protein; the word gives no strength.

Amino acid sequences for entries named in this document (tags omitted).
UniProt Q9BSM1: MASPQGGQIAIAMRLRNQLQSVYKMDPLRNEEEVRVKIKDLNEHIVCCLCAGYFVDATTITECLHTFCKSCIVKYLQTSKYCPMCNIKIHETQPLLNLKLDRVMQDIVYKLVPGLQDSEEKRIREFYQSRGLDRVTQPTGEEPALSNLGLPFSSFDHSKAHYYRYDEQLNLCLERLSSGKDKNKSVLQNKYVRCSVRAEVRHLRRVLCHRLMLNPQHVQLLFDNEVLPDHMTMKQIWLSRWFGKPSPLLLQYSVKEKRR
UniProt Q6W2J9: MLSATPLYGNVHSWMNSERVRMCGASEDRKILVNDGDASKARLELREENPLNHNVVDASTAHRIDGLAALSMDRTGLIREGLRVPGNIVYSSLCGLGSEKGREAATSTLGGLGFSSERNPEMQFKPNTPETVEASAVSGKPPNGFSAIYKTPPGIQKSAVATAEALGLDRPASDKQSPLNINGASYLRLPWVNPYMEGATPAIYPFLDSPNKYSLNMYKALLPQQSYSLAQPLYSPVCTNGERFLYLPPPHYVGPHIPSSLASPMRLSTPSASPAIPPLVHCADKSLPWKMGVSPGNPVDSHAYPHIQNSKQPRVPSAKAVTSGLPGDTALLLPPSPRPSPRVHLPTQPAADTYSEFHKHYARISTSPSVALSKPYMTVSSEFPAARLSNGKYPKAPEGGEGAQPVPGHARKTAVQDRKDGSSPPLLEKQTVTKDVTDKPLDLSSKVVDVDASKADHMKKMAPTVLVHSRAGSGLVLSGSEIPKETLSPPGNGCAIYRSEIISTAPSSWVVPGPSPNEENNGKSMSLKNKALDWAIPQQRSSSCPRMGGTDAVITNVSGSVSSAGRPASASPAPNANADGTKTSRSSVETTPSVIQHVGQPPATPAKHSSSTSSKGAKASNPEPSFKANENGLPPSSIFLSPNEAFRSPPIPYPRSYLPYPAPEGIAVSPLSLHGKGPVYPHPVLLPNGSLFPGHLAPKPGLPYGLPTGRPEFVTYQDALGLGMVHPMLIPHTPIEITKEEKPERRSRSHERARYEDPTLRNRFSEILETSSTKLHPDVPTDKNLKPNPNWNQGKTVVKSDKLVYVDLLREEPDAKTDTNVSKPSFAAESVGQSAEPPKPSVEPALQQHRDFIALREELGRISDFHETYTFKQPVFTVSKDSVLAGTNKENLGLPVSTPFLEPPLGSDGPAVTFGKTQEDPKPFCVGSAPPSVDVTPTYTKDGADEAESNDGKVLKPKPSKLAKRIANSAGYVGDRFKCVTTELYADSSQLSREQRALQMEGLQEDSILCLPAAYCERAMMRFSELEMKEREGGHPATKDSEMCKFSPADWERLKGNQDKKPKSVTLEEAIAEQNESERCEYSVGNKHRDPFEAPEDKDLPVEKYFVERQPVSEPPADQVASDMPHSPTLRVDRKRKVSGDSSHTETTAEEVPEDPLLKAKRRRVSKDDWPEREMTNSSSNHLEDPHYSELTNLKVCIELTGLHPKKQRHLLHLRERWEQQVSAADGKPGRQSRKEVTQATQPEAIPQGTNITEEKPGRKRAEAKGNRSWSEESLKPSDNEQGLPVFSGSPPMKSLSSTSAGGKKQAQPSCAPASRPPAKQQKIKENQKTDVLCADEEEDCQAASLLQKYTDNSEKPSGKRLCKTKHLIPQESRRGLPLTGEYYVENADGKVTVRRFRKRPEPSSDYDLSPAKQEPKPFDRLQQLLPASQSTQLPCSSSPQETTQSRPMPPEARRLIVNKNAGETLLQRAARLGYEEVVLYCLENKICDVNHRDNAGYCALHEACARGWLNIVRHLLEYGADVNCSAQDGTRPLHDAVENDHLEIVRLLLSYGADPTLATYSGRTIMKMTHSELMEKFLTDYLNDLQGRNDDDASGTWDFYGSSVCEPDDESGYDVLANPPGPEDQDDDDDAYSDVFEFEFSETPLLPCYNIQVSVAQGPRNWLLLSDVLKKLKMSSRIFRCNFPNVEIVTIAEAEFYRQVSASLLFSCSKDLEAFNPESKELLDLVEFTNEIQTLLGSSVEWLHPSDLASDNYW
UniProt Q9H9S0: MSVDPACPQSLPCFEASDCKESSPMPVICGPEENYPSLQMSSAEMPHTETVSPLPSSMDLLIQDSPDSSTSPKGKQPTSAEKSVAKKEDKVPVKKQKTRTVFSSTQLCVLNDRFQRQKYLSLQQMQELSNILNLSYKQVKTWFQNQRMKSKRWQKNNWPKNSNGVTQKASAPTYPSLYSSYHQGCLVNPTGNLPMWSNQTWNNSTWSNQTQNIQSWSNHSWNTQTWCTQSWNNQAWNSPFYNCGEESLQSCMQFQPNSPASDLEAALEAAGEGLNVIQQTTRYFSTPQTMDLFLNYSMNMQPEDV
UniProt P35226: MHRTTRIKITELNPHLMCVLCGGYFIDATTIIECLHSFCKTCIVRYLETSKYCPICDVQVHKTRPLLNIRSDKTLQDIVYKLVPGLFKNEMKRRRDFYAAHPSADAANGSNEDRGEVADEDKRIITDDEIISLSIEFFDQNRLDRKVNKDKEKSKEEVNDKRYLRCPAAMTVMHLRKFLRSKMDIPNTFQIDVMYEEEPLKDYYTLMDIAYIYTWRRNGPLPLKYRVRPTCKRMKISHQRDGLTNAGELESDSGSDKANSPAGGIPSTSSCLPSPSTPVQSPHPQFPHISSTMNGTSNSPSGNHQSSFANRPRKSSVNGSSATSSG

T1: DPPA4 (human (endogenous in NT2)) (UniProt Q7L190)
T1 sequence: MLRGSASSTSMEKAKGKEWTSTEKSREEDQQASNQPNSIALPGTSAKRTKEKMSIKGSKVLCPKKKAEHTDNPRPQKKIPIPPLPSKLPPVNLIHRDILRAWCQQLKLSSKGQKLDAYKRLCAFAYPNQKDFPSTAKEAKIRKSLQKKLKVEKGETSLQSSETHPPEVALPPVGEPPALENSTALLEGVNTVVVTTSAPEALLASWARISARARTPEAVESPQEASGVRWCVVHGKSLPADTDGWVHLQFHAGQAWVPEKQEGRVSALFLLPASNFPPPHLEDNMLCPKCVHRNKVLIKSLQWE


Tests used:
[1] = target: PCGF1 (human (endogenous in NT2)) (UniProt Q9BSM1); assay: co-IP; endogenous proteins; antibody cross-linked to Protein A beads, incubated with NT2 nuclear lysate with 250 U/mL Benzonase at 4 °C overnight, washed 5 x 5 min in Buffer C100 (0.02% NP-40); western blot; IgG control
[2] = target: T1, DPPA4 (human (endogenous in NT2)); assay: as above
[3] = target: BCOR (human (endogenous in NT2)) (UniProt Q6W2J9); assay: as above
[4] = target: FLAG-tagged PCGF1 (human) (UniProt Q9BSM1); assay: co-IP; FLAG-tagged PCGF1 exogenously expressed in NT2 cells; M2 anti-FLAG agarose, nuclear lysate in low salt buffer (150 mM NaCl, 50 mM TRIS pH 8.0, 1 mM EDTA, 1% NP40), overnight at 4 °C, elution with 3xFLAG peptide; western blot for DPPA4

Row | Molecule | binding [1] | binding [2] | binding [3] | binding [4]
1 | BCOR (from UniProt Q6W2J9 1-1755) | binds | no binding |  | 
2 | NANOG (from UniProt Q9H9S0 1-305) | binds |  |  | 
3 | PCGF4 (BMI1) (from UniProt P35226 1-326) | no binding | no binding | no binding | 
4 | RYBP (protein, UniProt Q8N488 1-228) MTMGDKKSPTRPKRQAKPAADEGFWDCSVCTFRNSAEAFKCSICDVRKGTSTRKPRINSQLVAQQVAQQYATPPPPKKEKKEKVEKQDKEKPEKDKEISPSVTKKNTNKKTKPKSDILKDPPSEANSIQSANATTKTSETNHTSRPRLKNVDRSTAQQLAVTVGNVTVIITDFKEKTRSSSTSSSTVTSSAGSEQQNQSSSGSESTDKGSSRSSTPKGDMSAVNDESF | binds |  |  | 
5 | DPPA4 (protein, UniProt Q7L190 1-304) MLRGSASSTSMEKAKGKEWTSTEKSREEDQQASNQPNSIALPGTSAKRTKEKMSIKGSKVLCPKKKAEHTDNPRPQKKIPIPPLPSKLPPVNLIHRDILRAWCQQLKLSSKGQKLDAYKRLCAFAYPNQKDFPSTAKEAKIRKSLQKKLKVEKGETSLQSSETHPPEVALPPVGEPPALENSTALLEGVNTVVVTTSAPEALLASWARISARARTPEAVESPQEASGVRWCVVHGKSLPADTDGWVHLQFHAGQAWVPEKQEGRVSALFLLPASNFPPPHLEDNMLCPKCVHRNKVLIKSLQWE | binds |  | no binding | binds
